Some of the results follow.
Experiments:
Test in all cases: glycan array binding signal (z-score within array); higher = stronger binding
Conditions in all cases: glycan notation: IUPAC condensed, linker removed
[1] = target: Fuc(a1-2)[Gal(a1-3)]Gal(b1-4)GlcNAc(b1-2)Man(a1-3)[Fuc(a1-2)[Gal(a1-3)]Gal(b1-4)GlcNAc(b1-2)Man(a1-6)]Man(b1-4)GlcNAc(b1-4)GlcNAc
Outline: (§1)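 Arrays were curated from the Consortium for Functional Glycomics database, 3228 in total, and kept only where the protein sequence was available. Binding is expressed as a within-array Z-score. This score was averaged across arrays of the same protein sequence at different concentrations or buffers and across linkers, and negative values can be read as non-binding.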

[2] = target: Fuc(a1-2)[Gal(a1-3)]Gal(b1-4)GlcNAc(b1-2)Man(a1-3)[Fuc(a1-2)[Gal(a1-3)]Gal(b1-4)GlcNAc(b1-2)Man(a1-6)]Man(b1-4)GlcNAc(b1-4)[Fuc(a1-6)]GlcNAc
Outline: as §1

[3] = target: Fuc(a1-2)[Gal(a1-3)]Gal(b1-4)GlcNAc(b1-3)GalNAc
Outline: as §1

[4] = target: Fuc(a1-2)[Gal(a1-3)]Gal(b1-4)GlcNAc(b1-3)[Fuc(a1-2)[Gal(a1-3)]Gal(b1-4)GlcNAc(b1-6)]GalNAc
Outline: as §1

[5] = target: Fuc(a1-2)[Gal(a1-3)]Gal(b1-4)GlcNAc(b1-6)GalNAc
Outline: as §1

[6] = target: Fuc(a1-2)[Gal(a1-3)]Gal(b1-4)[Fuc(a1-3)]Glc
Outline: as §1

[7] = target: Fuc(a1-2)[Gal(a1-3)]Gal(b1-4)[Fuc(a1-3)]GlcNAc
Outline: as §1

[8] = target: Fuc(a1-2)[Gal(a1-3)]Gal(b1-4)[Fuc(a1-3)]GlcNAc(b1-3)GalNAc
Outline: as §1

[9] = target: Fuc(a1-2)[Gal(a1-4)]Gal(b1-4)GlcNAc
Outline: as §1

[10] = target: Fuc(a1-2)[GalNAc(a1-3)]Gal
Outline: as §1

[11] = target: Fuc(a1-2)[GalNAc(a1-3)]Gal(b1-3)GalNAc(a1-3)[Fuc(a1-2)]Gal(b1-4)GlcNAc
Outline: as §1

[12] = target: Fuc(a1-2)[GalNAc(a1-3)]Gal(b1-3)GalNAc(b1-3)Gal(a1-4)Gal(b1-4)Glc
Outline: as §1

[13] = target: Fuc(a1-2)[GalNAc(a1-3)]Gal(b1-3)GlcNAc
Outline: as §1

[14] = target: Fuc(a1-2)[GalNAc(a1-3)]Gal(b1-3)GlcNAc(b1-2)Man(a1-3)[Fuc(a1-2)[GalNAc(a1-3)]Gal(b1-3)GlcNAc(b1-2)Man(a1-6)]Man(b1-4)GlcNAc(b1-4)GlcNAc
Outline: as §1

[15] = target: Fuc(a1-2)[GalNAc(a1-3)]Gal(b1-3)GlcNAc(b1-2)Man(a1-3)[Fuc(a1-2)[GalNAc(a1-3)]Gal(b1-3)GlcNAc(b1-2)Man(a1-6)]Man(b1-4)GlcNAc(b1-4)[Fuc(a1-6)]GlcNAc
Outline: as §1

[16] = target: Fuc(a1-2)[GalNAc(a1-3)]Gal(b1-3)GlcNAc(b1-3)GalNAc
Outline: as §1

[17] = target: Fuc(a1-2)[GalNAc(a1-3)]Gal(b1-3)GlcNAc(b1-6)GalNAc
Outline: as §1

[18] = target: Fuc(a1-2)[GalNAc(a1-3)]Gal(b1-4)Glc
Outline: as §1

[19] = target: Fuc(a1-2)[GalNAc(a1-3)]Gal(b1-4)GlcNAc
Outline: as §1

[20] = target: Fuc(a1-2)[GalNAc(a1-3)]Gal(b1-4)GlcNAc(b1-2)Man
Outline: as §1

[21] = target: Fuc(a1-2)[GalNAc(a1-3)]Gal(b1-4)GlcNAc(b1-2)Man(a1-3)[Fuc(a1-2)[GalNAc(a1-3)]Gal(b1-4)GlcNAc(b1-2)Man(a1-6)]Man(b1-4)GlcNAc(b1-4)GlcNAc
Outline: as §1

[22] = target: Fuc(a1-2)[GalNAc(a1-3)]Gal(b1-4)GlcNAc(b1-2)Man(a1-3)[Fuc(a1-2)[GalNAc(a1-3)]Gal(b1-4)GlcNAc(b1-2)Man(a1-6)]Man(b1-4)GlcNAc(b1-4)[Fuc(a1-6)]GlcNAc
Outline: as §1

[23] = target: Fuc(a1-2)[GalNAc(a1-3)]Gal(b1-4)GlcNAc(b1-3)Gal(b1-4)GlcNAc
Outline: as §1

[24] = target: Fuc(a1-2)[GalNAc(a1-3)]Gal(b1-4)GlcNAc(b1-3)Gal(b1-4)GlcNAc(b1-3)Gal(b1-4)GlcNAc
Outline: as §1

[25] = target: Fuc(a1-2)[GalNAc(a1-3)]Gal(b1-4)GlcNAc(b1-3)GalNAc
Outline: as §1

[26] = target: Fuc(a1-2)[GalNAc(a1-3)]Gal(b1-4)GlcNAc(b1-3)[Fuc(a1-2)[GalNAc(a1-3)]Gal(b1-4)GlcNAc(b1-6)]GalNAc
Outline: as §1

[27] = target: Fuc(a1-2)[GalNAc(a1-3)]Gal(b1-4)GlcNAc(b1-6)GalNAc
Outline: as §1

[28] = target: Fuc(a1-2)[GalNAc(a1-3)]Gal(b1-4)[Fuc(a1-3)]GlcNAc
Outline: as §1

[29] = target: Fuc(a1-2)[GalNAc(a1-3)]Gal(b1-4)[Fuc(a1-3)]GlcNAc(b1-3)GalNAc
Outline: as §1

[30] = target: Fuc(a1-2)[GalNAc(a1-4)]Gal(b1-4)GlcNAc
Outline: as §1

[31] = target: Fuc(a1-2)[GalNAc(b1-3)]Gal
Outline: as §1

Fuc(a1-3)GlcNAc = target: Fuc(a1-3)GlcNAc
Outline: as §1

[32] = target: Fuc(a1-3)[Gal(b1-4)]Glc6S
Outline: as §1

[33] = target: Fuc(a1-3)[Gal(b1-4)]GlcNAc
Outline: as §1

[34] = target: Fuc(a1-3)[Gal(b1-4)]GlcNAc(b1-2)Man
Outline: as §1

[35] = target: Fuc(a1-3)[Gal(b1-4)]GlcNAc(b1-2)Man(a1-3)[Fuc(a1-3)[Gal(b1-4)]GlcNAc(b1-2)Man(a1-6)]Man(b1-4)GlcNAc(b1-4)GlcNAc
Outline: as §1

[36] = target: Fuc(a1-3)[Gal(b1-4)]GlcNAc(b1-2)Man(a1-3)[Fuc(a1-3)[Gal(b1-4)]GlcNAc(b1-2)Man(a1-6)]Man(b1-4)GlcNAc(b1-4)[Fuc(a1-6)]GlcNAc
Outline: as §1

[37] = target: Fuc(a1-3)[Gal(b1-4)]GlcNAc(b1-3)Gal(b1-3)[Fuc(a1-4)]GlcNAc
Outline: as §1

[38] = target: Fuc(a1-3)[Gal(b1-4)]GlcNAc(b1-3)Gal(b1-4)[Fuc(a1-3)]GlcNAc
Outline: as §1

[39] = target: Fuc(a1-3)[Gal(b1-4)]GlcNAc(b1-3)Gal(b1-4)[Fuc(a1-3)]GlcNAc(b1-3)Gal(b1-4)[Fuc(a1-3)]GlcNAc
Outline: as §1

[40] = target: Fuc(a1-3)[Gal(b1-4)]GlcNAc(b1-3)GalNAc
Outline: as §1

[41] = target: Fuc(a1-3)[Gal(b1-4)]GlcNAc(b1-6)GalNAc
Outline: as §1

[42] = target: Fuc(a1-3)[Gal(b1-4)]GlcNAc(b1-6)[Gal(b1-3)GlcNAc(b1-3)]Gal(b1-4)Glc
Outline: as §1

[43] = target: Fuc(a1-3)[Gal(b1-4)]GlcNAc6S
Outline: as §1

[44] = target: Fuc(a1-3)[Gal3S(b1-4)]Glc
Outline: as §1

[45] = target: Fuc(a1-3)[Gal3S(b1-4)]GlcNAc
Outline: as §1

[46] = target: Fuc(a1-3)[Gal3S(b1-4)]GlcNAc6S
Outline: as §1

[47] = target: Fuc(a1-3)[GalNAc(b1-4)]GlcNAc
Outline: as §1

[48] = target: Fuc(a1-3)[GalNAc(b1-4)]GlcNAc6S
Outline: as §1

Fuc(a1-4)GlcNAc = target: Fuc(a1-4)GlcNAc
Outline: as §1

Fuc(b1-3)GlcNAc = target: Fuc(b1-3)GlcNAc
Outline: as §1

Gal(a1-2)Gal = target: Gal(a1-2)Gal
Outline: as §1

Gal(a1-3)Gal = target: Gal(a1-3)Gal
Outline: as §1

Gal(a1-3)Gal(b1-3)GlcNAc = target: Gal(a1-3)Gal(b1-3)GlcNAc
Outline: as §1

[49] = target: Gal(a1-3)Gal(b1-3)GlcNAc(b1-2)Man
Outline: as §1

[50] = target: Gal(a1-3)Gal(b1-3)GlcNAc(b1-2)Man(a1-3)[Gal(a1-3)Gal(b1-3)GlcNAc(b1-2)Man(a1-6)]Man(b1-4)GlcNAc(b1-4)GlcNAc
Outline: as §1

[51] = target: Gal(a1-3)Gal(b1-3)GlcNAc(b1-3)GalNAc
Outline: as §1

[52] = target: Gal(a1-3)Gal(b1-3)GlcNAc(b1-6)GalNAc
Outline: as §1

[53] = target: Gal(a1-3)Gal(b1-3)[Fuc(a1-4)]GlcNAc(b1-2)Man(a1-3)[Gal(a1-3)Gal(b1-3)[Fuc(a1-4)]GlcNAc(b1-2)Man(a1-6)]Man(b1-4)GlcNAc(b1-4)GlcNAc
Outline: as §1

Gal(a1-3)Gal(b1-4)Glc = target: Gal(a1-3)Gal(b1-4)Glc
Outline: as §1

B1: PFL (Pseudomonas fluorescens) (protein)
chain: MSKYAVANQWGGSSAPWHPGGTWVLGARDNQNVVAIEIKSGDGGKSFTGTMTYAGEGPIGFKAQRTGQNQYNVENQWGGNDAPWHPGGKWVIGGRDNQNVIALSVTSSDGGKNLSGTNTYANEGPIGFRGQIE
glycan array binding signal (z-score) [1]: -0.073 | glycan array binding signal (z-score) [2]: 0.21 | glycan array binding signal (z-score) [3]: -0.108 | glycan array binding signal (z-score) [4]: -0.103 | glycan array binding signal (z-score) [5]: -0.115 | glycan array binding signal (z-score) [6]: -0.113 | glycan array binding signal (z-score) [7]: -0.117 | glycan array binding signal (z-score) [8]: -0.111 | glycan array binding signal (z-score) [9]: -0.117 | glycan array binding signal (z-score) [10]: -0.114 | glycan array binding signal (z-score) [11]: -0.111 | glycan array binding signal (z-score) [12]: -0.113 | glycan array binding signal (z-score) [13]: -0.119 | glycan array binding signal (z-score) [14]: -0.046 | glycan array binding signal (z-score) [15]: 0.249 | glycan array binding signal (z-score) [16]: -0.113 | glycan array binding signal (z-score) [17]: -0.117 | glycan array binding signal (z-score) [18]: -0.112 | glycan array binding signal (z-score) [19]: -0.117 | glycan array binding signal (z-score) [20]: -0.112 | glycan array binding signal (z-score) [21]: -0.08 | glycan array binding signal (z-score) [22]: 0.043 | glycan array binding signal (z-score) [23]: -0.117 | glycan array binding signal (z-score) [24]: -0.107 | glycan array binding signal (z-score) [25]: -0.108 | glycan array binding signal (z-score) [26]: -0.103 | glycan array binding signal (z-score) [27]: -0.116 | glycan array binding signal (z-score) [28]: -0.111 | glycan array binding signal (z-score) [29]: -0.102 | glycan array binding signal (z-score) [30]: -0.116 | glycan array binding signal (z-score) [31]: -0.117 | glycan array binding signal (z-score) (Fuc(a1-3)GlcNAc): -0.12 | glycan array binding signal (z-score) [32]: -0.105 | glycan array binding signal (z-score) [33]: -0.116 | glycan array binding signal (z-score) [34]: -0.11 | glycan array binding signal (z-score) [35]: -0.103 | glycan array binding signal (z-score) [36]: -0.079 | glycan array binding signal (z-score) [37]: -0.111 | glycan array binding signal (z-score) [38]: -0.102 | glycan array binding signal (z-score) [39]: -0.106 | glycan array binding signal (z-score) [40]: -0.111 | glycan array binding signal (z-score) [41]: -0.111 | glycan array binding signal (z-score) [42]: -0.044 | glycan array binding signal (z-score) [43]: -0.116 | glycan array binding signal (z-score) [44]: -0.117 | glycan array binding signal (z-score) [45]: -0.116 | glycan array binding signal (z-score) [46]: -0.115 | glycan array binding signal (z-score) [47]: -0.105 | glycan array binding signal (z-score) [48]: -0.111 | glycan array binding signal (z-score) (Fuc(a1-4)GlcNAc): -0.116 | glycan array binding signal (z-score) (Fuc(b1-3)GlcNAc): -0.112 | glycan array binding signal (z-score) (Gal(a1-2)Gal): -0.113 | glycan array binding signal (z-score) (Gal(a1-3)Gal): -0.116 | glycan array binding signal (z-score) (Gal(a1-3)Gal(b1-3)GlcNAc): -0.116 | glycan array binding signal (z-score) [49]: -0.113 | glycan array binding signal (z-score) [50]: -0.056 | glycan array binding signal (z-score) [51]: -0.112 | glycan array binding signal (z-score) [52]: -0.117 | glycan array binding signal (z-score) [53]: 0.499 | glycan array binding signal (z-score) (Gal(a1-3)Gal(b1-4)Glc): -0.11
